Out of some 310,000 compounds screened, about 2,200 (0.71%) showed an effect of 50% or more. The effect is printed as a negative number. The list shows a part of the results.

Chain of human ether-à-go-go-related gene (hERG) potassium channel (Q12809 whole entry, looked up): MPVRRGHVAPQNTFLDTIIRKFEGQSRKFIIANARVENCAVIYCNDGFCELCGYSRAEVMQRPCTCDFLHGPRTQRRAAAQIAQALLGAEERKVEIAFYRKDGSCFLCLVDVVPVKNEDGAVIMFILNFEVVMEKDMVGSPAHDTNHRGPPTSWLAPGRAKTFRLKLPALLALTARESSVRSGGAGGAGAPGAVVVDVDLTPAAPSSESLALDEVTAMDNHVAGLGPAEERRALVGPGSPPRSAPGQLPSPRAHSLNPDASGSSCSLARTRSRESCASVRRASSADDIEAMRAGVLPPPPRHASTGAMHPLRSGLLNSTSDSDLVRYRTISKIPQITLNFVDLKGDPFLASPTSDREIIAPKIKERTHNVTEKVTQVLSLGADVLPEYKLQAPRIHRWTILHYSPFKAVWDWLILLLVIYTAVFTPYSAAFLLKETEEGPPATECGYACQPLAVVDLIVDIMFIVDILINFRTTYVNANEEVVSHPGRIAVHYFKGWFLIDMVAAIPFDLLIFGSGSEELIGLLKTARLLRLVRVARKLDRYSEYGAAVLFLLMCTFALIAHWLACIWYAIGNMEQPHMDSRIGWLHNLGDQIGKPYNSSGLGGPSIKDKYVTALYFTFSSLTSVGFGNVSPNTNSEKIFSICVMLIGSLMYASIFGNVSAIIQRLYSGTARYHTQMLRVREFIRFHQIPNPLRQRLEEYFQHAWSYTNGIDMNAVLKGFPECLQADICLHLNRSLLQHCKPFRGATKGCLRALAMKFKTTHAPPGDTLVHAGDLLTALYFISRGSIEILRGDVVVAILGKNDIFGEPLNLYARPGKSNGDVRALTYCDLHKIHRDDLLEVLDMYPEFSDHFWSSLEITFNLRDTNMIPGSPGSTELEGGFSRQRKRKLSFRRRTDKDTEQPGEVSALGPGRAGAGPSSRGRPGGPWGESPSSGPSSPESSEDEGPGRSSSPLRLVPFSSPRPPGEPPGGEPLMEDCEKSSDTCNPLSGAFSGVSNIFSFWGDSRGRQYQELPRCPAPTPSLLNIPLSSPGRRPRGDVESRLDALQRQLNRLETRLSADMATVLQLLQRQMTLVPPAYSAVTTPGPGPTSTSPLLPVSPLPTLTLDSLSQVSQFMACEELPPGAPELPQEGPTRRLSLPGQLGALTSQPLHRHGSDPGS

The assay has as its target human ether-à-go-go-related gene (hERG) potassium channel (human, UniProt Q12809). The experiment in a line: primary screen, population patch clamp on CHO cells stably expressing hERG.
On to `CC(=O)Nc1cc(C(=O)O)ccc1S(=O)(=O)c1ccc(Cl)cc1`, for which the “hERG current change (%, negative = inhibition) at 1uM” value was 5.6%.
For the compound `CC1(C)Cc2c(sc(NC(=O)c3ccc(C(=O)c4ccccc4)cc3)c2C#N)C(C)(C)N1`, the “hERG current change (%, negative = inhibition) at 1uM” value worked out at 5.7%.
With `O=C(NCCc1cccc(Cl)c1)c1cccs1`, the “hERG current change (%, negative = inhibition) at 1uM” value is reported as 0.471%.
The figure for `CN1CCN(c2ccc(Cl)cc2NS(=O)(=O)c2ccccc2Cl)CC1` is 5.2%; for `CNC(=S)N/N=C/c1ccc(-c2cccc(C(=O)O)c2)o1` it is 6.18%; for `Cc1ccc(C2C(C#N)=C(N)Oc3cc(C)oc(=O)c32)o1` (stereo not drawn) it is 7.58%.
The figure for `N#Cc1ccccc1S(=O)(=O)N1CCC(C(=O)NCc2ccccc2CN2CCCC2)CC1` is -45.7%.
The figure for `CCOC(=O)c1ccc(N2CCN(c3ccccc3F)CC2)c(NC(=O)Nc2cccc(OC)c2)c1` is -0.332%; for `C=CC[N+]1(CC#CCOC(c2ccccc2)c2ccccc2)CCOCC1.[Cl-]` it is 4.52%.
As to `CCN1CCN(c2ccc(NC(=O)c3cc(OC)c(OC)c(OC)c3)cc2)CC1.Cl`, the “hERG current change (%, negative = inhibition) at 1uM” value was found to be 8.41%.
On to `CCn1c(SCC(=O)N(C)c2ccccc2)nc2c([nH]c3ccccc32)c1=O`, for which the “hERG current change (%, negative = inhibition) at 1uM” value was 17.3%.
In the case of `Cc1ccc(-c2cc(C(F)F)n3ncc(C(=O)Nc4cn(C)nc4C)c3n2)cc1`, the “hERG current change (%, negative = inhibition) at 1uM” value is 7.44%.
Take `Cc1cc(OCC(=O)Nc2ccncc2)cc(C)c1Br`: the “hERG current change (%, negative = inhibition) at 1uM” value came to 10.2%.
Take `COc1ccc(OC)c(-c2csc(-c3cccs3)n2)c1`: the “hERG current change (%, negative = inhibition) at 1uM” value amounted to 11%.
Regarding `S=C1NCN(Cc2ccco2)CN1CCc1ccccc1`, the “hERG current change (%, negative = inhibition) at 1uM” value stood at 4.64%.
The figure for `Cc1ccc(C(=O)c2ncc[nH]2)cc1` is 10.2%; for `O.S=c1nc[nH]c2nc[nH]c12` it is -1.51%; for `COc1cccc(CN2CCN(Cc3ccon3)CC2CCO)c1` (stereo not drawn) it is 13.4%.
Turning to `C/C(=C\c1ccccc1)C(=O)NCCCn1ccnc1`, the “hERG current change (%, negative = inhibition) at 1uM” value was determined as 6.52%.
Turning to `COc1ccccc1NC(=O)C1(C)Cc2ccccc2C(=O)O1` (stereo not drawn), the “hERG current change (%, negative = inhibition) at 1uM” value worked out at 2.39%.
The value for `N#Cc1ccc(NC(=S)NCCN2CCOCC2)cc1` was 7.42%.
The figure for `Cn1c(=O)c2c(-c3ccccc3)n(-n3cnnc3)cc2n(C)c1=O` is 1.24%; for `FC(F)(F)C(Oc1nc(NC2CCCCC2)nc(N2CCOCC2)n1)C(F)(F)F` it is 19.9%; for `CCc1cccc(OCC(=O)Nc2cc(Cl)ccc2-n2cncn2)c1` it is -1.27%.
The value for `O=c1[nH]n2c(C(F)(F)F)cc(C3CC3)nc2c1N=Nc1ccccc1` was 8.92%; that for `CCC(=O)N1CCN(c2ccnc3cc(Cl)ccc23)CC1` was -25.7%.
For `Cc1cccc(NC(=O)N2CCC(NC(=O)c3ccco3)CC2)c1`, the “hERG current change (%, negative = inhibition) at 1uM” value stood at 9.14%.
On to `CCc1ccc(Nc2nc(N)nc(CSc3nnnn3-c3ccccc3)n2)cc1`, for which the “hERG current change (%, negative = inhibition) at 1uM” value is 20.7%.
The value for `COCCNC(=O)CSc1nc(-c2ccc(OC)c(OC)c2)cc(C(F)(F)F)n1` was 8.93%; that for `O=C(Nc1ccccc1)N1N=C(c2cccs2)CC1c1cccs1` (stereo not drawn) was -4.35%; that for `Cc1oc(-c2cccc(Cl)c2)nc1CN1CCC(C(=O)NCCCN2CC(C)CC(C)C2)CC1` (stereo not drawn) was 13.9%.
For the compound `Cc1nc2ccccc2n1/C(=N/S(=O)(=O)c1ccc(Br)cc1)c1ccccc1`, the “hERG current change (%, negative = inhibition) at 1uM” value was determined as 11.6%.
Turning to `CCOC(=O)N1CCN(c2c(NCCc3ccc(C)cc3)c(=O)c2=O)CC1`, the “hERG current change (%, negative = inhibition) at 1uM” value is on record as -1.23%.
Consider `O=S(=O)(Nc1ccc(F)cc1)N1CCOCC1`, for which the “hERG current change (%, negative = inhibition) at 1uM” value was found to be 6.74%.
The figure for `O=C(NCc1cccnc1)C1CCC(CNS(=O)(=O)c2ccc(Cl)cc2)CC1` (stereo not drawn) is 2.81%.
For the compound `COC(=O)c1ccc(Oc2cc(C)nc(-n3nc(C)cc3C)n2)cc1`, the “hERG current change (%, negative = inhibition) at 1uM” value was -14%.
For the compound `CN(CC(=O)Nc1cccc(F)c1)C(=O)c1ccccc1Cc1ccccc1`, the “hERG current change (%, negative = inhibition) at 1uM” value was determined as 19.5%.
The figure for `CC1CCN(CCCn2c(=S)[nH]c3c(sc4ccc([N+](=O)[O-])cc43)c2=O)CC1.Cl` is 12.7%; for `Cc1ccccc1C(=O)NNC(=O)CSc1nnc(-c2ccncc2)n1-c1ccccc1` it is 4.94%.
The figure for `Cc1ccc(NC(=O)Cn2nnc(-c3ccccc3-n3cnnn3)n2)c(C)c1` is 12.9%; for `O=C(CCC(=O)N(CC(=O)NC1CCCC1)Cc1ccc(F)cc1)Nc1nccs1` it is 12.5%.
The figure for `COc1cccc(C(=O)O/N=C(\C)c2cnccn2)c1` is 0.287%.
As for `N#C/C(=C\c1ccncc1)C(=O)Nc1ccc(C(=O)O)cc1`, the “hERG current change (%, negative = inhibition) at 1uM” value came out at 12%.
`COc1ccc(NC(=O)COc2cccc(-n3cnnn3)c2)cc1`: the “hERG current change (%, negative = inhibition) at 1uM” value was -7.26%.
`CCCCN(C)CCNC(=O)CN1C(=O)CSc2ccc(S(=O)(=O)N3CCCCC3)cc21`: the “hERG current change (%, negative = inhibition) at 1uM” value is listed as -6.21%.
The figure for `COCn1cnc(-c2ccccc2)c1-c1ccccc1` is 1.15%; for `Cc1ccc(C)c(S(=O)(=O)N2CCCC2CNC(=O)C(=O)NCCc2ccco2)c1` (stereo not drawn) it is 21.1%.
Regarding `Cc1ccc(C2CC(=O)c3cnc(N4CCc5ccccc5C4)nc3C2)cc1` (stereo not drawn), the “hERG current change (%, negative = inhibition) at 1uM” value came out at 10.7%.
The value for `COc1ccc(-c2cccc(NS(=O)(=O)c3ccc([N+](=O)[O-])cc3)c2)nn1` was 2.94%.
The figure for `CCC/C(O)=C1\C(=O)CCCC1=NCCc1c(C)[nH]c2ccccc12` is 4.61%; for `C=CCSc1nc(C)c(CC(=C)C)c(=O)[nH]1` it is 13.4%; for `COCCn1c(SCC(=O)Nc2ccc(OC)cc2)nnc1-c1ccoc1C` it is 12.2%.
For the compound `Cc1ccccc1N=Cc1cccc(O)c1O`, the “hERG current change (%, negative = inhibition) at 1uM” value worked out at 13.9%.
The value for `COC(=O)c1ccc(N2C(=O)CC(N(C)CCc3ccc(OC)c(OC)c3)C2=O)cc1` (stereo not drawn) was 11.8%.
Consider `CCCC(C(=O)NCc1ccc(OC)cc1)N(Cc1ccco1)C(=O)c1snc(C(N)=O)c1N` (stereo not drawn), for which the “hERG current change (%, negative = inhibition) at 1uM” value was -0.996%.
As to `CCNC(=S)NCCC1=c2ccccc2=N/C1=C\c1c(O)n(C)c(=O)n(C)c1=O`, the “hERG current change (%, negative = inhibition) at 1uM” value was determined as 22.5%.
As for `C=CCNC(=O)C1CCCN(S(C)(=O)=O)C1` (stereo not drawn), the “hERG current change (%, negative = inhibition) at 1uM” value is 14%.

The record behind these values is article PMC4336329 (PLoS ONE, 2015).
